From US20210238298A1 (ALLIGATOR BIOSCIENCE, published 2021)

B1: bispecific molecule 1514/1581 (OX40 x CTLA-4) (bispecific antibody, human IgG1, kappa)
heavy: EVQLLESGGGLVQPGGSLRLSCAASGFTFGYYYMSWVRQAPGKGLEWVSGISSYGSYTYYADSVKGRFTISRDNSKNTLYLQMNSLRAEDTAVYYCARSGYSNWANSFDYWGQGTLVTVSS[… human IgG1 constant region …]
light: DIQMTQSPSSLSASVGDRVTITCRASQSISSYLNWYQQKPGKAPKLLIYAASSLQSGVPSRFSGSGSGTDFTLTISSLQPEDFATYYCQQGDYTLFTFGQGTKLEIKRTVAAPSVFIFPPSDEQLKSGTASVVCLLNNFYPREAKVQWKVDNALQSGNSQESVTEQDSKDSTYSLSSTLTLSKADYEKHKVYACEVTHQGLSSPVTKSFNRGECSGGGGSGGGGSAPLKIQAYFNETADLPCQFANSQNLSLSELVVFWQDQENLVLNEVYLGKERFDSVDSKYMGRTSFDSDSWTLRLHNLQIKDKGRYQCIIHHKKPTGMINIHQMNSELSVLA
B2: 1618-1765 (bispecific antibody)
heavy: EVQLLESGGGLVQPGGSLRLSCAASGFTFSYGSMYWVRQAPGKGLEWVSSISSGSGSTYYADSVKGRFTISRDNSKNTLYLQMNSLRAEDTAVYYCARSSYYGSYYSIDYWGQGTLVTVSS[… human IgG1 constant region …]
light: B1 light with G91Y, D92Y, Y93D, T94N, F96P
notes: CD137 x CTLA-4 bispecific polypeptide
B3: bispecific molecule 1166/1261 (OX40 x CTLA-4) (bispecific antibody, human IgG1, kappa)
heavy: EVQLLESGGGLVQPGGSLRLSCAASGFTFGGYYMSWVRQAPGKGLEWVSAISGSGGSTYYADSVKGRFTISRDNSKNTLYLQMNSLRAEDTAVYYCARYDYASMDYWGQGTLVTVSS[… human IgG1 constant region …]
light: DIQMTQSPSSLSASVGDRVTITCRASQSISSYLNWYQQKPGKAPKLLIYAASSLQSGVPSRFSGSGSGTDFTLTISSLQPEDFATYYCQQYYWYGLSTFGQGTKLEIKRTVAAPSVFIFPPSDEQLKSGTASVVCLLNNFYPREAKVQWKVDNALQSGNSQESVTEQDSKDSTYSLSSTLTLSKADYEKHKVYACEVTHQGLSSPVTKSFNRGECSGGGGSGGGGSAPLKIQAYFNETADLPCQFANSQNLSLSELVVFWQDQENLVLNEVYLGKERFDSVDSKYMGRTSFDSDSWTLRLHNLQIKDKGRYQCIIHHKKPTGMINIHQMNSELSVLA

Key:
CTLA-4 (BMS, Orencia) [1] = molecular target: T1, CTLA-4 (BMS, Orencia) (human, UniProt P16410 38-152); assay: cell-based or functional assay
CTLA-4 (BMS, Orencia) [2] = molecular target: T1, CTLA-4 (BMS, Orencia); assay: cell-based or functional assay; remark: listed apart in the source
T1 sequence (P16410 38-152 limits assumed): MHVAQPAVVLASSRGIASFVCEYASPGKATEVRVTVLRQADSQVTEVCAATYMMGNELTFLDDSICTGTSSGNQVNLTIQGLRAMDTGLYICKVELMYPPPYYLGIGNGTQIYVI

[3] = molecular target: T2, recombinant human CD137-Fc (R&D #838-4B) (human, UniProt Q07011 24-186); assay: dual ELISA: rhCD137-Fc coated, bispecific antibody in dilutions, biotinylated CTLA-4 (1 ug/ml), HRP-streptavidin; the signal needs both bindings at once
T2 construct: Bought; also called Human CD137 (R&D systems); CD137 (R&D Systems); not shown: Fc part, not described
T2 sequence (Q07011 24-186 limits assumed): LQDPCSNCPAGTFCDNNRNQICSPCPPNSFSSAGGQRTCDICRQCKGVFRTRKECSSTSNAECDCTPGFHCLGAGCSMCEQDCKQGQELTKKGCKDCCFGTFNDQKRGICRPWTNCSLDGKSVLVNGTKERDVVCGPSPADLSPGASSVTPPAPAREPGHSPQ

Binder | Fold change in IL-2 level induced by bispecific molecule compared to the corresponding combination of the monospecific molecules at 1.5 nM (CTLA-4 (BMS, Orencia) [1]) | Mean IL-2 level (pg/ml) induced at 1.5 nM (CTLA-4 (BMS, Orencia) [2]) | EC50 (read off the curve) [3]
B1 | 5.5 fold | 5110 pg/mL | –
B2 | – | – | ~0.7 nM
B3 | 7.8 fold | 4290 pg/mL | –

Changes are numbered by the printed parent chain.
